# Results as given in PubChem BioAssay AID1347073 (National Center for Advancing Translational Sciences (NCATS), 2019).
# In all, about 45,000 compounds went through this assay and about 200 (0.44%) were called active. Inconclusive results (about 7%) are left out. Calls come from the whole dose curve; as a rule, active = well fitted activation curve with a large enough effect; inconclusive = small, poorly fitted or top-dose-only effect; inactive = no such curve, though single readings can be large or run the other way. The list shows a part of the results.
# Assay: qHTS of TDP-43 Inhibitors: NCGC Sytravon Library Screen; note: 0% is about no effect; nearly all actives have a fitted effect of over 55% in size
# Conditions: yeast TDP-43 toxicity rescue, BacTiter-Glo growth, 24 h; series mostly up to 46.1 µM; growth rescue (activation): at the top concentration
# From the text: The goal of this project is to identify new chemical probes capable of reversing the toxicity associated with TDP-43 which is associated with frontotemporal lobar degeneration and amyotrophic lateral sclerosis. These compounds will provide a complementary approach to deciphering the tangled mechanisms of toxicity and protection that we have uncovered through genome-wide genetic screens and are beginning to uncover in a large-scale proteomics analysis with mass spectroscopy. To this end, a miniaturized assay was developed to be screened against the Molecular Libraries Small Molecule Repository (MLSMR) to discover TDP-43 inhibitors. Please note that in the set-up this yeast-based assay compounds that inhibit as TDP-43, have a read-out as activators. NIH Chemical Genomics Center [NCGC] NIH Molecular Libraries Probe Centers Network [MLPCN] Assay Submitter (PI): Susan Lindquist, Whitehead Institute/MIT MLPCN Grant: R21 NS060957
# Dispense 2.5 microL yeast galactose medium per 1536-well plate, pin compound, dispense 2.5 microL TDP-43 expressing yeast in galactose medium at OD600=0.02 (pregrown in raffinose medium to mid-log phase) per well, incubate for 24 hr at 30 deg C, and cell growth will be measured using 5 microL of Bactiter/Glo reagent to entire plate and read using Luminescence Protocol in ViewLux.
row,Structure (SMILES),growth rescue (activation)
1,Cc1ccc(C(=O)C2=C(O)C(=O)N(c3ncccn3)C2c2ccc(Br)cc2)o1 (centres undefined),inactive: -14%
2,CC1CC1C(=O)OCC(=O)Nc1cccc(S(=O)(=O)NC2=NCCCCC2)c1 (centres undefined),inactive: 28.7%
3,Cc1nnc(NC(=O)C(C)Sc2nnc(-c3ccco3)n2C)s1 (centres undefined),inactive: 10.3%
4,CC(NC(=O)CN(C)S(=O)(=O)c1ccc(Br)s1)c1ccccc1 (centres undefined),inactive: 11.5%
5,CCc1nc2ccc(C(=O)NCc3ccc(OC)cc3)cn2c1N(CC)Cc1cccc(Br)c1,inactive: -0.945%
6,O=C(COC(=O)c1ccc(Br)cc1)NCc1ccccc1,inactive: 14.8%
7,COCCn1c(=O)c2c(nc3n2CCCN3CCc2ccc(OC)c(OC)c2)n(C)c1=O,inactive: 2.88%
8,COc1ccc(S(=O)(=O)Nc2c(O)c3ccccc3oc2=O)cc1,inactive: -8.15%
9,COc1ccc(S(=O)(=O)Nc2cc(Sc3ncn[nH]3)c(O)cc2C)cc1,inactive: -12.6%
10,CC(=O)c1c(C)[nH]c(C(=O)OCC(=O)N(Cc2ccccc2)C(C)(C)C)c1C,inactive: 9.01%
11,CCCS(=O)(=O)N1CCCC(C(=O)NCC2CCCO2)C1 (centres undefined),inactive: -10%
12,COc1cc(SC)ccc1C(=O)OCC(=O)NC1CCCC1,inactive: 26.1%
13,COCCCNC(NC(=O)c1ccc(Br)cc1)C(Cl)(Cl)Cl (centres undefined),inactive: -4.39%
14,CN(C)CCCn1c(SCC(=O)N2c3ccccc3Sc3ccccc32)nc2ccccc2c1=O,inactive: -10.9%
15,CCc1nc2c(OCc3cccc(OC)c3)cccn2c1N(C)C(=O)C(C)C,inactive: 5.77%
16,COc1ccc2cc(C(C)C(=O)N3CCC(C(N)=O)CC3)ccc2c1 (centres undefined),inactive: -3.18%
17,CC(=O)Nc1ccc(S(=O)(=O)Nc2cc(C)ccn2)cc1,inactive: 9.19%
18,Cc1ccc(OC(C)C(=O)N2CC(=O)Nc3ccccc32)cc1 (centres undefined),inactive: 9.22%
19,CC(=O)N1CCc2cc(S(=O)(=O)NC3CCCCC3)ccc21,inactive: 2.32%
20,Cc1cc(=O)oc2cc(OCCCN3C(=O)c4ccccc4C3=O)ccc12,inactive: 16.2%
21,CCN1CCSc2ccc(C(=O)NCc3cccc(F)c3)cc21,inactive: 16.4%
22,Cc1ccc(NC(=O)Cn2cnc3c(oc4nc5c(cc43)COC(C)(C)C5)c2=O)cc1,inactive: 10%
23,O=C1C2C(c3ccccc3)C=CC(c3ccccc3)C2C(=O)N1c1ccccn1 (centres undefined),inactive: -4.8%
24,O=C(Nc1ccc(N2CCCCC2)cc1)c1cccnc1,inactive: 0.0556%
25,COc1ccc(C)cc1NC(=O)Cn1c(=O)oc2ccccc21,inactive: -9.59%
26,COc1cccc2c(SCC(=O)N/N=C/c3ccc(O)c(O)c3)cc(C)nc12,inactive: -9.95%
27,Cc1cccc(Nc2nc(-c3ccccc3)c3cc(C)ccc3n2)c1,inactive: 15.1%

row,Structure (SMILES),growth rescue (activation)
1,C/C(CC(=O)NCc1ccco1)=N\NC(=O)Cc1cccc2ccccc12,inactive: 2.8%
2,CCN(CC)c1ccc(NC(=O)CN(C)Cc2cccs2)cc1,inactive: -23.3%
3,CCC(CC)C(=O)Nc1ccc([N+](=O)[O-])cn1,inactive: 19.6%
4,COc1ccccc1NC(=O)NN1CCCCC1,inactive: 6.9%
5,COc1ccc(C(=O)NCCCNC(=O)c2cnccn2)cc1,inactive: -7.68%
6,COc1cc2nc(CN(C)Cc3ccc(F)cc3)[nH]c(=O)c2cc1OC,inactive: 1.43%
7,O=C(Nc1ccc2c(c1)OCCO2)C(=O)NC1CC1,inactive: 4.3%
8,CN(C)C(=O)C[n+]1cccc(/C=N/O)c1,inactive: -7.67%
9,O=C(CN1C(=O)c2ccccc2C1=O)Nc1ccc(S(=O)(=O)N2CCOCC2)cc1,inactive: 14.9%
10,CCCCN(CCCC)CC(O)Cn1c2ccccc2c(=O)c2ccccc21 (centres undefined),inactive: -1.37%
11,O=C(O)c1cn(CCOc2ccccc2Cl)c2ccccc12,inactive: 3.64%
12,O=C(O)CCCN1C(=O)c2ccc(Oc3cccc([N+](=O)[O-])c3)cc2C1=O,inactive: 12.4%
13,CCN(Cc1ccccc1)c1ccc(/C=N/N2CCOCC2)cc1,inactive: 7.83%
14,COc1cc(S(=O)(=O)N(Cc2cccnc2)Cc2cccc(OC)c2OC)ccc1-n1cnnn1,inactive: 38.5%
15,CN(Cc1ccccc1)C(=O)CN1C(=O)NC(C)(c2ccc(C(C)(C)C)cc2)C1=O (centres undefined),inactive: 10.5%
16,CCOc1ccccc1CN(CCc1ccc2c(c1)OCO2)Cc1ccccn1,inactive: -8.44%
17,O=C(O)c1ccc(N=Nc2c(-c3ccccc3)[nH]oc2=O)cc1,inactive: 10.2%
18,CCn1c(C)cc(/C=C2/SC(=O)N(C(C)C(=O)OC)C2=O)c1C (centres undefined),inactive: 15%
19,CC(C)c1ccc(NC(=O)Nc2nc(C(N)c3ccccc3)cs2)cc1 (centres undefined),inactive: 17.7%
20,COCCNC(=O)C1(C)CCCN(Cc2ccc3ccccc3c2Br)C1 (centres undefined),inactive: -3.33%
21,CCCCn1c(O)c(C=NCCCN(C)C)c(=O)[nH]c1=O,inactive: -25.2%
22,O=C(CSc1nc2ccc(Cl)cc2[nH]1)NC1CCCc2ccccc21 (centres undefined),inactive: -16.8%
23,Cc1cc(C)nc(N2CCC(C(=O)NC3CC3)CC2)n1,inactive: 4.32%
24,COc1cccc(C2(O)C(=O)Nc3ccccc32)c1 (centres undefined),inactive: -7.8%
25,CC(C)c1nnc(NC(=O)CCCC(=O)O)s1,inactive: 11.1%
26,COC(=O)c1sccc1NC(=S)N1CCCCC1,inactive: 18.8%
27,Cc1ccc(CNc2ncc(-c3ccccc3)n2C)o1,inactive: -2.49%
